{
  "source": "PubChem BioAssay AID1461",
  "about": "(National Center for Advancing Translational Sciences (NCATS), 2008)",
  "note": "Out of some 220,000 compounds screened, about 2,300 (1%) were called active. Inconclusive means that the source gave no clear call. Such entries were picked first, then a sample of the others. Calls follow the shape of the dose curve; as a rule, active = well fitted inhibition curve with a large enough effect; inconclusive = small, poorly fitted or top-dose-only effect, or effect the other way; inactive = no such curve, though single readings can be large or run the other way. Where the call is inconclusive, the potency comes from a doubtful curve fit. % is scaled to controls: 0 for no effect and ±100 for the full control effect; potency is read from the fitted curve at half-maximal effect; tags tell the direction and shape of the fitted curve.",
  "data": [
    {"molecular_target": "Neuropeptide S receptor (Homo sapiens) (UniProt Q6W5P4)", "sequence (Q6W5P4 whole entry, looked up)": "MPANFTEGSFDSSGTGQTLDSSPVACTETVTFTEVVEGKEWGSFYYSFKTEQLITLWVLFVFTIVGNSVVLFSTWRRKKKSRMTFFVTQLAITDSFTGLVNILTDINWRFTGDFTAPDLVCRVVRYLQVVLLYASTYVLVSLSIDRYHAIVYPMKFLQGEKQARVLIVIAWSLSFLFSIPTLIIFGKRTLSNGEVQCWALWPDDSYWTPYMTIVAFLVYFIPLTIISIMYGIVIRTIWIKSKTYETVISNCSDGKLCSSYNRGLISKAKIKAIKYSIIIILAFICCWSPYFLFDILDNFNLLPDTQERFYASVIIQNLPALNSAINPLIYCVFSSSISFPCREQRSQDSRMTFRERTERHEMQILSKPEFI", "experiment": "qHTS Assay for Antagonists of the Neuropeptide S Receptor: cAMP Signal Transduction; also: nearly all actives have a fitted effect of over 50% in size", "details": "CHO-NPSR cells, cAMP TR-FRET, antagonist mode; activity change, negative = inhibition: at 38.3 µM (top of the series) unless noted", "values": [
      {"smiles": "CCN(CC)C(=O)Cn1nc(-c2ccccc2O)nc1SCC(=O)Nc1ccc(OC)cc1", "activity change, negative = inhibition": "inconclusive: -32% [inhibitor] [at 46.1 µM]"},
      {"smiles": "Cc1cc(C)cc(-n2c3nc4ccccc4nc3c3c(=O)n(Cc4ccco4)cnc32)c1", "Potency": "active: 10 µM"},
      {"smiles": "O=C(NCc1ccc2c(c1)OCO2)c1cccc(F)c1", "activity change, negative = inhibition": "inactive: 0.439% [at 7.67 µM]"},
      {"smiles": "CCOc1ccc2nc(NS(=O)(=O)c3ccc4c(c3)n(C)c(=O)n4C)sc2c1", "Potency": "inconclusive: 2.51 µM [inhibitor, full curve, poor fit]"},
      {"smiles": "CCCC(=O)NC(c1ccco1)c1cc([N+](=O)[O-])c2cccnc2c1O", "note": "(configuration not stated)", "Potency": "inconclusive: 12.6 µM [inhibitor, single point]"},
      {"smiles": "CCCCn1c(=O)c(CCC(=O)OC(C)C(=O)Nc2cccc(Cl)c2Cl)nc2ccccc21", "note": "(configuration not stated)", "Potency": "inconclusive: 12.6 µM [inhibitor, partial curve]"},
      {"smiles": "Nc1ncnc2nc(SCCc3ccccc3)[nH]c12", "Potency": "inconclusive: 25.1 µM [inhibitor, single point]"},
      {"smiles": "COc1ccc(-c2nnc(SCC(=O)N3CCc4ccccc4C3)o2)cc1", "Potency": "inconclusive: 25.1 µM [inhibitor, single point]"},
      {"smiles": "Cc1cc(C)c2nc(-c3ccccn3)cc(C(=O)NCCc3ccc(S(N)(=O)=O)cc3)c2c1", "Potency": "inactive"},
      {"smiles": "CCCCSc1nc(C)cc(C)c1S(=O)(=O)c1ccccc1C", "Potency": "inconclusive: 7.94 µM [inhibitor, partial curve]"},
      {"smiles": "CCOc1ccccc1C(=O)Nc1cc(OC)ccc1OC", "Potency": "inconclusive: 10 µM [inhibitor, partial curve]"},
      {"smiles": "COc1ccc(NC(=O)C2CCCCN2S(=O)(=O)c2ccc(F)cc2)c(OC)c1", "note": "(configuration not stated)", "Potency": "inconclusive: 31.6 µM [inhibitor, single point]"},
      {"smiles": "Cc1ccc(C)c2[nH]c(=O)c(CN(Cc3ccco3)C(=O)Nc3ccccc3)cc12", "Potency": "inconclusive: 0.1 µM [inhibitor, full curve, poor fit]"},
      {"smiles": "COC(=O)CN1C(c2cccc(Cl)c2)=Nc2ccc(Cl)cc2C1c1ccccc1", "note": "(configuration not stated)", "Potency": "inconclusive: 10 µM [inhibitor, single point]"},
      {"smiles": "CC(=O)Nc1ccc(S(=O)(=O)N2CCN=C2SCc2cccnc2)cc1", "Potency": "inactive"},
      {"smiles": "CC(C)(C)c1ccc(-c2cn(-c3ccc(Br)cc3)c3[n+]2CCCS3)cc1", "Potency": "active: 10 µM"},
      {"smiles": "CCn1c(C)cc(=S)c2ccccc21", "Potency": "inconclusive: 3.16 µM [activator, single point]"},
      {"smiles": "Cc1cc(C)c(S(=O)(=O)Nc2ccc(O)cc2)cc1C", "Potency": "inactive"},
      {"smiles": "CN(C)C=Nc1ccc2nn(-c3ccccc3)nc2c1", "Potency": "inactive"},
      {"smiles": "O=C(CSc1nnc(-c2ccc(F)cc2)o1)Nc1ccc(S(=O)(=O)N2CCCC2)cc1", "Potency": "inactive"},
      {"smiles": "Cc1ccc(OCCN2C(=O)c3ccccc3C2=O)cc1", "Potency": "inconclusive: 25.1 µM [inhibitor, single point]"},
      {"smiles": "Cc1cc2c(N)cccc2nn1", "Potency": "inconclusive: 12.6 µM [inhibitor, single point]"},
      {"smiles": "CCOC(=O)Cn1nnc(-c2ccc(OCC(C)C)cc2)n1", "Potency": "inconclusive: 20 µM [inhibitor, partial curve, poor fit]"},
      {"smiles": "CC(C)(C)c1ccccc1OCCCCCn1ccnc1", "Potency": "inconclusive: 25.1 µM [inhibitor, single point]"},
      {"smiles": "Cn1c(=O)c(-c2ccccc2)nn2c3ccccc3nc12", "Potency": "inconclusive: 12.6 µM [activator, partial curve, poor fit]"},
      {"smiles": "Cc1cccc(-n2[nH]c3c4c(ccc3c2=O)C(=O)c2ccccc2C4=O)c1", "Potency": "inactive"},
      {"smiles": "Cc1cc(C)n(-c2nc3ccccc3nc2N2CCCCCC2)n1", "Potency": "inconclusive: 12.6 µM [inhibitor, single point]"},
      {"smiles": "Cc1ccc(C)c(S(=O)(=O)N2C(=S)NC(=O)C2C(C)C)c1", "note": "(configuration not stated)", "Potency": "inactive"},
      {"smiles": "N/C(=N\\c1nc2ccccc2o1)NC(=O)c1ccc(F)cc1", "Potency": "inactive"},
      {"smiles": "N#Cc1ccccc1OCC(=O)Nc1c(C(=O)C2CC2)oc2ccccc12", "Potency": "inconclusive: 12.6 µM [inhibitor, single point]"},
      {"smiles": "CC1CCc2c(sc(NC(=O)c3ccc(Cn4cc([N+](=O)[O-])cn4)o3)c2C#N)C1", "note": "(configuration not stated)", "Potency": "inactive"},
      {"smiles": "Cc1ccsc1-c1n[nH]c(=S)n1CC(C)C", "Potency": "inactive"},
      {"smiles": "CCc1nnc(NC(=O)CSc2nc3cc4c(cc3cc2C)OCCO4)s1", "Potency": "inconclusive: 25.1 µM [activator, single point]"},
      {"smiles": "Cc1cc2nc(-c3ccc(SCC(=O)N4CCN(C(=O)c5ccco5)CC4)nc3)[nH]c2cc1C", "Potency": "inconclusive: 10 µM [inhibitor, single point]"},
      {"smiles": "c1ccc(-c2ccccc2-n2cnnn2)cc1", "Potency": "inconclusive: 3.16 µM [inhibitor, single point]"},
      {"smiles": "C/C(=N\\NS(=O)(=O)c1ccc([N+](=O)[O-])cc1)c1ccc(NC(=O)c2ccco2)cc1", "Potency": "inactive"},
      {"smiles": "COc1ccc(NC(=O)/C(Cl)=C(/Cl)S(=O)(=O)Cc2ccccc2)cn1", "Potency": "active: 5.01 µM"},
      {"smiles": "CC1(C)C2CCC(C2)C1C/C=N/NC(N)=S", "note": "(configuration not stated)", "Potency": "inconclusive: 7.94 µM [activator, partial curve]"},
      {"smiles": "CC(C)C(c1nnnn1Cc1ccc(F)cc1)N1CCN(Cc2ccc3c(c2)OCO3)CC1", "note": "(configuration not stated)", "Potency": "inconclusive: 7.94 µM [inhibitor, partial curve]"},
      {"smiles": "COc1ccccc1OCc1ccc(C(=O)NC(C)(C)C)o1", "Potency": "inactive"},
      {"smiles": "COc1ccc(-n2nnnc2-c2ccccc2)cc1", "Potency": "inactive"},
      {"smiles": "Cc1cc(C)nc(NS(=O)(=O)c2ccc(NC(=O)CSc3nc(-c4ccccc4)c(C#N)c(=O)[nH]3)cc2)n1", "Potency": "active: 3.98 µM"},
      {"smiles": "Cc1c(Br)cc(C(=O)N2CCCCCC2)c(C)c1C", "Potency": "inconclusive: 10 µM [inhibitor, single point]"},
      {"smiles": "CCCCc1ccc(NC(=S)Nc2ccc(Nc3ccc(OC)cc3)cc2)cc1", "Potency": "inactive"},
      {"smiles": "CC(C)n1c(N2CCN(CC(=O)NCc3cccs3)CC2)nc2ccccc21", "Potency": "inactive"},
      {"smiles": "CN(C)c1ccc(C(=O)c2ccc(N(C)C)c3ccccc23)cc1", "Potency": "inconclusive: 0.199 µM [activator, partial curve]"},
      {"smiles": "Cc1ccc(Nc2nc(N)c([N+](=O)[O-])c(N3CCCC(C)C3)n2)cc1C", "note": "(configuration not stated)", "Potency": "inconclusive: 10 µM [inhibitor, single point]"}
    ]}
  ]
}
